Test [1] deals with GFP-tagged TopBP1 wild-type (UniProt Q92547). As to the kind of experiment: co-IP; pull-down of GFP-tagged TopBP1 or BLM constructs (GFP-Trap agarose) from lysates of transiently transfected 293FT cells, 24 hr after transfection; also cells synchronized in S phase (Figure S3A); Benzonase-treated lysate, 200 mM NaCl, 2 mM EDTA, 4°C; western blot.
Test [2] concerns the target GFP-tagged wild-type BLM (human) (UniProt P54132). As to the kind of experiment: co-IP; pull-down of GFP-BLM proteins from U2OS cells stably expressing them; western blot. For orientation: A western blot detects proteins with antibodies after separation by electrophoresis.
The target of test [3] is GFP-tagged BLM S304A (human) (UniProt P54132). The description is as above.
Test [4] addresses GFP-tagged wild-type BLM (human) (UniProt P54132). As to the kind of experiment: co-IP; pull-down of GFP-tagged TopBP1 or BLM constructs (GFP-Trap agarose) from lysates of transiently transfected 293FT cells, 24 hr after transfection; also cells synchronized in S phase (Figure S3A); Benzonase-treated lysate, 200 mM NaCl, 2 mM EDTA, 4°C; western blot.
The target in test [5] is GFP-tagged BLM lacking the N-terminal 132 residues (human) (UniProt P54132). The description is as above.

Sequences of proteins named here, by UniProt entry; tags and fusion partners are left off. A change or cut given only in a name is not applied to a line headed by its entry. A line that says so, or that is headed by a name, gives the form on record, which may keep a tag or linker. Residues count along the entry.
UniProt Q92547: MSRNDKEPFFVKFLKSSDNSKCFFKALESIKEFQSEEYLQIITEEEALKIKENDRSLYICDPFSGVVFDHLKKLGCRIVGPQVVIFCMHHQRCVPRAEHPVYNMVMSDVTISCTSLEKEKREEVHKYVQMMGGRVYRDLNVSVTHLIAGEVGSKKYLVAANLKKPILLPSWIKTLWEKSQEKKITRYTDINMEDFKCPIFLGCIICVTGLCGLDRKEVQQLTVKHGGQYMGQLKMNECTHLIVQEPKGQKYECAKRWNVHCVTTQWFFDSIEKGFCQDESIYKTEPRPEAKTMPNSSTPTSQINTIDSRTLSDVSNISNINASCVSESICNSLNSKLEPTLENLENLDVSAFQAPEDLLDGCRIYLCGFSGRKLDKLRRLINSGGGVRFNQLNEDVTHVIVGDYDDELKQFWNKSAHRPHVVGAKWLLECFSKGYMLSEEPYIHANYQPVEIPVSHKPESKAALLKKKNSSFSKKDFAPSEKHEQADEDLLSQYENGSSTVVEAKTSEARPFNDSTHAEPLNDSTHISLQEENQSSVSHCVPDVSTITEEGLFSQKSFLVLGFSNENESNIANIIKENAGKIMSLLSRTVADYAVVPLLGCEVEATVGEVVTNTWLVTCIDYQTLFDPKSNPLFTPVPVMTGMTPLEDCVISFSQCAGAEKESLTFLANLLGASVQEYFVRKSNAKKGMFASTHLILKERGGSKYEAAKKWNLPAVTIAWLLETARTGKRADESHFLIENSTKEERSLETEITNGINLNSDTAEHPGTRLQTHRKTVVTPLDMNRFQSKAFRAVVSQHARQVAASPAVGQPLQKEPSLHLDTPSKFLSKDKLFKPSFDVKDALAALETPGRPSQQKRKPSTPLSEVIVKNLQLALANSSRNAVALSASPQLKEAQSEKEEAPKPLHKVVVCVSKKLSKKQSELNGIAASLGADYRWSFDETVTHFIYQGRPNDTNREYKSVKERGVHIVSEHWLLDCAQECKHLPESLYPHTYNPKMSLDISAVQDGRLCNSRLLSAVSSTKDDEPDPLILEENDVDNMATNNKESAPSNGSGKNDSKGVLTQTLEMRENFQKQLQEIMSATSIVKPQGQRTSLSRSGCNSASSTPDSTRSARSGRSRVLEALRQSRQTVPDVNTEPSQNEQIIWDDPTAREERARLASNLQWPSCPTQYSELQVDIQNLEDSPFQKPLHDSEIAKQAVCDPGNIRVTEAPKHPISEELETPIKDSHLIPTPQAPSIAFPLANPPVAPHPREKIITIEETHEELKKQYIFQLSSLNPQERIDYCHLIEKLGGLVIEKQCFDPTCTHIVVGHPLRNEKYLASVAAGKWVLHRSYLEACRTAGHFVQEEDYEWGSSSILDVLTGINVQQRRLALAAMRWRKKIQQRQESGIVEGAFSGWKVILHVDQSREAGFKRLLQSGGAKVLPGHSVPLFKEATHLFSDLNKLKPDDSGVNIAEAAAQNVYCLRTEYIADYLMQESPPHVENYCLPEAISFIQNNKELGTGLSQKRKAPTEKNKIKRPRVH
UniProt P54132: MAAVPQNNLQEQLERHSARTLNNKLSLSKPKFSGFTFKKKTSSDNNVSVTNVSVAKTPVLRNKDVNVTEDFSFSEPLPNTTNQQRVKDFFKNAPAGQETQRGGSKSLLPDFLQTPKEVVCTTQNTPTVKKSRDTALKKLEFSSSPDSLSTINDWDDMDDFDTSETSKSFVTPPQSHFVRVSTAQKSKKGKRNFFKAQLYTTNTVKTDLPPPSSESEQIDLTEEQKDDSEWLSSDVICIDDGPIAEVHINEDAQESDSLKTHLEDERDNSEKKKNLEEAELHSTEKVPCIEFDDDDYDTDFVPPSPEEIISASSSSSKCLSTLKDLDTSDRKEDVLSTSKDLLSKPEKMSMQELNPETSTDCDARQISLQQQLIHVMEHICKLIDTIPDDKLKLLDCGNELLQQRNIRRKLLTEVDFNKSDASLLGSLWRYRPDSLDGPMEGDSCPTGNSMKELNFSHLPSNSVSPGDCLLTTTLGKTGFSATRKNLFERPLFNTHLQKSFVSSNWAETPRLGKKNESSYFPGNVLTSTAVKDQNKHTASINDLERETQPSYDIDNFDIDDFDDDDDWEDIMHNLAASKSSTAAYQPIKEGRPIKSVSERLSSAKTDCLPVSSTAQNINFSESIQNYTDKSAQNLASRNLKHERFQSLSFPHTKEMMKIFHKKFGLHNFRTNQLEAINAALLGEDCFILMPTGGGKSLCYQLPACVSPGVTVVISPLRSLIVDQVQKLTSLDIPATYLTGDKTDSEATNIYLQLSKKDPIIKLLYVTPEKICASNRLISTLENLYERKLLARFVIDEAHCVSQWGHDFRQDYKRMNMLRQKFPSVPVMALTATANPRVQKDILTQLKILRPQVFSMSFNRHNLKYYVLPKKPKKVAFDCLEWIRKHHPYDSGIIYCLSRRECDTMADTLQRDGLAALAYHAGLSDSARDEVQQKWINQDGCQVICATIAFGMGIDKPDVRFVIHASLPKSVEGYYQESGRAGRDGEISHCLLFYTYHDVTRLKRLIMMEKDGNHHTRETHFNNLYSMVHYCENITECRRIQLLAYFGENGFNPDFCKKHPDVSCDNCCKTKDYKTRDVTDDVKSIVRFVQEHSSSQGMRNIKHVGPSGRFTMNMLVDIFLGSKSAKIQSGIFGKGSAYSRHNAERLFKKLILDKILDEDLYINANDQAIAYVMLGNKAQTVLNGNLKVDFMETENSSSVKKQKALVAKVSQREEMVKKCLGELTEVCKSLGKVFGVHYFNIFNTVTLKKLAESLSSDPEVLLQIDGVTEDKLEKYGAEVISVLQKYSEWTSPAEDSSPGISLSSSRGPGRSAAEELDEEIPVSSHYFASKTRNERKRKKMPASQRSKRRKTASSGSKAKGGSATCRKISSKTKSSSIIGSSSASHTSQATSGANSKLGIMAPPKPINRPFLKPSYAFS
GFP-tagged BLM lacking the N-terminal 132 residues: residues 133-1417 of P54132

Results are given in words; binding and its absence hold for the method and conditions named. In cells and extracts the contact can be indirect. Some results given as binding are weak or reduced against the parent protein; the word gives no strength.

B1: RMI1 (protein, UniProt Q9H9A7 1-625)
chain: MNVTSIALRAETWLLAAWHVKVPPMWLEACINWIQEENNNVNLSQAQMNKQVFEQWLLTDLRDLEHPLLPDGILEIPKGELNGFYALQINSLVDVSQPAYSQIQKLRGKNTTNDLVTAEAQVTPKPWEAKPSRMLMLQLTDGIVQIQGMEYQPIPILHSDLPPGTKILIYGNISFRLGVLLLKPENVKVLGGEVDALLEEYAQEKVLARLIGEPDLVVSVIPNNSNENIPRVTDVLDPALGPSDEELLASLDENDELTANNDTSSERCFTTGSSSNTIPTRQSSFEPEFVISPRPKEEPSNLSIHVMDGELDDFSLEEALLLEETVQKEQMETKELQPLTFNRNADRSIERFSHNPNTTNNFSLTCKNGNNNWSEKNVSEQMTNEDKSFGCPSVRDQNRSIFSVHCNVPLAHDFTNKEKNLETDNKIKQTSSSDSHSLNNKILNREVVNYVQKRNSQISNENDCNLQSCSLRSSENSINLSIAMDLYSPPFVYLSVLMASKPKEVTTVKVKAFIVTLTGNLSSSGGIWSITAKVSDGTAYLDVDFVDEILTSLIGFSVPEMKQSKKDPLQYQKFLEGLQKCQRDLIDLCCLMTISFNPSLSKAMVLALQDVNMEHLENLKKRLNK
As to B1, in test [1], the binding result is given as “binds”.

B2: topoisomerase IIIα (TOP3A) (protein, UniProt Q13472 1-1001)
chain: MIFPVARYALRWLRRPEDRAFSRAAMEMALRGVRKVLCVAEKNDAAKGIADLLSNGRMRRREGLSKFNKIYEFDYHLYGQNVTMVMTSVSGHLLAHDFQMQFRKWQSCNPLVLFEAEIEKYCPENFVDIKKTLERETRQCQALVIWTDCDREGENIGFEIIHVCKAVKPNLQVLRARFSEITPHAVRTACENLTEPDQRVSDAVDVRQELDLRIGAAFTRFQTLRLQRIFPEVLAEQLISYGSCQFPTLGFVVERFKAIQAFVPEIFHRIKVTHDHKDGIVEFNWKRHRLFNHTACLVLYQLCVEDPMATVVEVRSKPKSKWRPQALDTVELEKLASRKLRINAKETMRIAEKLYTQGYISYPRTETNIFPRDLNLTVLVEQQTPDPRWGAFAQSILERGGPTPRNGNKSDQAHPPIHPTKYTNNLQGDEQRLYEFIVRHFLACCSQDAQGQETTVEIDIAQERFVAHGLMILARNYLDVYPYDHWSDKILPVYEQGSHFQPSTVEMVDGETSPPKLLTEADLIALMEKHGIGTDATHAEHIETIKARMYVGLTPDKRFLPGHLGMGLVEGYDSMGYEMSKPDLRAELEADLKLICDGKKDKFVVLRQQVQKYKQVFIEAVAKAKKLDEALAQYFGNGTELAQQEDIYPAMPEPIRKCPQCNKDMVLKTKKNGGFYLSCMGFPECRSAVWLPDSVLEASRDSSVCPVCQPHPVYRLKLKFKRGSLPPTMPLEFVCCIGGCDDTLREILDLRFSGGPPRASQPSGRLQANQSLNRMDNSQHPQPADSRQTGSSKALAQTLPPPTAAGESNSVTCNCGQEAVLLTVRKEGPNRGRQFFKCNGGSCNFFLWADSPNPGAGGPPALAYRPLGASLGCPPGPGIHLGGFGNPGDGSGSGTSCLCSQPSVTRTVQKDGPNKGRQFHTCAKPREQQCGFFQWVDENTAPGTSGAPSWTGDRGRTLESEARSKRPRASSSDMGSTAKKPRKCSLCHQPGHTRPFCPQNR
Regarding B2, the binding result in test [1] is listed as “binds”.

B3: RMI2 (protein, UniProt Q96E14 1-147)
chain: MAAAADSFSGGPAGVRLPRSPPLKVLAEQLRRDAEGGPGAWRLSRAAAGRGPLDLAAVWMQGRVVMADRGEARLRDPSGDFSVRGLERVPRGRPCLVPGKYVMVMGVVQACSPEPCLQAVKMTDLSDNPIHESMWELEVEDLHRNIP
In the case of B3, the binding entry is given as “binds” in test [2]; “binds” in test [3]; “binds” in test [4]; “no binding” in test [5]; “binds” in test [1].
